From patent US20230135471A1 (INTEGRATED DNA TECHNOLOGIES, published 2023)

Biological target: MBP tagged 53BP1 fragment (a.a. 1484-1603)
Test: BLI, fold change Ka of Ubv/Ka of CM203

Binder | binding result
L69A (CM358) (designed binder) Ubv: MHHHHHHGGSGYLIFVRMLTGKMIELEVEPSDTIENIKAKIQDHEGIPLDQQRLTFQGKLLEDGRTLSDYNLLIDPKKMAVLRMQ | binds
L69C (CM362) (designed binder) Ubv: MHHHHHHGGSGYLIFVRMLTGKMIELEVEPSDTIENIKAKIQDHEGIPLDQQRLTFQGKLLEDGRTLSDYNLLIDPKKMCVLRMQ | binds
L69D (CM361) (designed binder) Ubv: MHHHHHHGGSGYLIFVRMLTGKMIELEVEPSDTIENIKAKIQDHEGIPLDQQRLTFQGKLLEDGRTLSDYNLLIDPKKMDVLRMQ | binds
L69E (CM363) (designed binder) Ubv: MHHHHHHGGSGYLIFVRMLTGKMIELEVEPSDTIENIKAKIQDHEGIPLDQQRLTFQGKLLEDGRTLSDYNLLIDPKKMEVLRMQ | binds
L69F (CM370) (designed binder) Ubv: MHHHHHHGGSGYLIFVRMLTGKMIELEVEPSDTIENIKAKIQDHEGIPLDQQRLTFQGKLLEDGRTLSDYNLLIDPKKMFVLRMQ | binds
L69G (CM365) (designed binder) Ubv: MHHHHHHGGSGYLIFVRMLTGKMIELEVEPSDTIENIKAKIQDHEGIPLDQQRLTFQGKLLEDGRTLSDYNLLIDPKKMGVLRMQ | binds
L69H (CM366) (designed binder) Ubv: MHHHHHHGGSGYLIFVRMLTGKMIELEVEPSDTIENIKAKIQDHEGIPLDQQRLTFQGKLLEDGRTLSDYNLLIDPKKMHVLRMQ | binds
L69I (CM367) (designed binder) Ubv: MHHHHHHGGSGYLIFVRMLTGKMIELEVEPSDTIENIKAKIQDHEGIPLDQQRLTFQGKLLEDGRTLSDYNLLIDPKKMIVLRMQ | binds
L69K (CM368) (designed binder) Ubv: MHHHHHHGGSGYLIFVRMLTGKMIELEVEPSDTIENIKAKIQDHEGIPLDQQRLTFQGKLLEDGRTLSDYNLLIDPKKMKVLRMQ | binds
L69M (CM369) (designed binder) Ubv: MHHHHHHGGSGYLIFVRMLTGKMIELEVEPSDTIENIKAKIQDHEGIPLDQQRLTFQGKLLEDGRTLSDYNLLIDPKKMMVLRMQ | binds
L69N (CM360) (designed binder) Ubv: MHHHHHHGGSGYLIFVRMLTGKMIELEVEPSDTIENIKAKIQDHEGIPLDQQRLTFQGKLLEDGRTLSDYNLLIDPKKMNVLRMQ | binds
L69Q (CM364) (designed binder) Ubv: MHHHHHHGGSGYLIFVRMLTGKMIELEVEPSDTIENIKAKIQDHEGIPLDQQRLTFQGKLLEDGRTLSDYNLLIDPKKMQVLRMQ | binds

Biological target: MBP tagged 53BP1 fragment (a.a. 1484-1603)
Test: BLI, fold change Ka of Ubv/Ka of CM1

Binder | binding result
CM134, His-tagged (designed binder) MHHHHHHGGSGMLIFVRMLTGKMIELEVMPSDTIENVKAKIQDHEGIPPDQQRLAFQGTSLDDGRTLGDYNLLIDPKKMPLLRLR | binds
CM135, His-tagged (designed binder) MHHHHHHGGSGMLIFVRMLTGKMIELMVEPSDTIEVVKAKIQDHEGIPPDEQRLAFQGKLLEDGRTLSDYNLLIDPKKMPLLRLR | binds
CM136, His-tagged (designed binder) MHHHHHHGGSGYLIFVRMLTGKMIELEVMPSDTIENIKAKIQDHEGIPPDQQRLAFQGTSLDDGRTLGDYNLLIDPKKMPLLRMR | binds
CM137, His-tagged (designed binder) MHHHHHHGGSGYLIFVRMLTGKMIELEVMPSDTIENIKAKIQDHEGIPPDQQRLAFQGTSLDDGRTLGDYNLLIDPKKMPLLRMQ | binds
CM138 (designed binder) Ubv: MHHHHHHGGSGYLIFVRMLTGKMIELEVMPSDTIEVIKAKIQDHEGIPPDEQRLAFQGTSLDDGRTLGDYNLLIDPKKMPLLRMQ | binds
CM139, His-tagged (designed binder) MHHHHHHGGSGMLIFVRMLTGKMIELEVEPSDTIENVKAKIQDHEGIPPDQQRLTFQGKLLEDGRTLSDYNLLIDPKKMPLLRLR | binds
CM140, His-tagged (designed binder) MHHHHHHGGSGMLIFVRMLTGKMIELEVEPSDTIENVKAKIQDHEGIPLDQQRLTFQGKLLEDGRTLSDYNLLIDPKKMPLLRLR | binds
CM141, His-tagged (designed binder) MHHHHHHGGSGMLIFVRMLTGKMIELEVEPSDTIENVKAKIQDHEGIPLDQQRLTFQGKLLEDGRTLSDYNLLIDPKKMPLLRLQ | binds
CM143 (designed binder) Ubv: MHHHHHHGGSGMLIFVRMLTGKMIELEVEPSDTIEVVKAKIQDHEGIPLDEQRLTFQGKLLDDGRTLSDYNLLIDPKKMPLLRLQ | binds
CM147 (designed binder) Ubv: MHHHHHHGGSGMLIFVRMLTGKMIELEVMPSDTIEVVKAKIQDHEGIPLDQQHLTFQGTLLEDGYTLGDYNLLIDPKKMPLLRLQ | binds
CM 132 (designed binder) Ubv: MHHHHHHGGSGYLIFVRMLTGKMIELEVEPSDTIEVIKAKIQDHEGIPPDEQRLAFQGKSLDDGRTLSDYNLLIDPKKMPLLRMR | binds
CM 133 (designed binder) Ubv: MHHHHHHGGSGMLIFVRMLTGKMIELEVEPSDTIEVVKAKIQDHEGIPPDEQRLAFQGKSLDDGRTLSDYNLLIDPKKMPLLRLR | binds
CM 144 (designed binder) Ubv: MHHHHHHGGSGYLIFVRMLTGKMIELEVEPSDTIEVIKAKIQDHEGIPLDEQRLTFQGKLLDDGRTLSDYNLLIDPKKMPLLRMQ | binds
CM 145 (designed binder) Ubv: MHHHHHHGGSGMLIFVRMLTGKMIELEVMPSDTIEVVKAKIQDHEGIPPDQQHLTFQGTLLEDGYTLGDYNLLIDPKKMPLLRLR | binds
CM 146 (designed binder) Ubv: MHHHHHHGGSGMLIFVRMLTGKMIELEVMPSDTIEVVKAKIQDHEGIPLDQQHLTFQGTLLEDGYTLGDYNLLIDPKKMPLLRLR | binds
CM 148 (designed binder) Ubv: MHHHHHHGGSGMLIFVRMLTGKMIELEVMPSDTIEVVKAKIQDHEGIPLDEQHLTFQGTLLDDGYTLGDYNLLIDPKKMPLLRLQ | binds
CM158 (designed binder) Ubv: MLIFVRMLTGKMIELEVMPSDTIEVVKAKIQDHEGIPPDQQHLAFQGTSLEDGYTLGDYNLLIDPKKMPLLRLR | binds
